Over roughly 4,500 sequences, “median log2 fold change of GCK-ALFA target abundance (FLAG IP / Myc IP barcode read proportion)” has its median near 0.078; the lowest 2% begin near -0.6. The list shows a part of the results.
B1: GBRAP_95_7026 (protein)
chain: EDDQLLVDSLTEVLETYVDLGDEERAREAARRLVRALRENGILPLPKSISVEAAKLILEVALEELDLEELEALAKQLIEATKDEEVRKYAEAKIAEKRAR
B2: GBRAP_83_6882 (protein)
chain: KEEIVVAGPSDRVEELVEIAIDLHKNEGYDVTIEILVTREGIEAVLEAVKRLAEEGVDTEVIVVGKGLSKEEMEKLKKEMEEIAKKYGSNIKIEVLLDEP
B3: GBRAP_39_5643 (protein)
chain: EEEEENELIFSYLEAVGAKYQYEKGLSDEEMKEKTLELLDKAKKELPEIKELLEELKKLVEEGDESVVVAAYGVLLLYEEGTPEEEVKEHIEKLINYLKS
B4: GBRAP_45_5800 (protein)
chain: MEELEEEIKELTELLKKIKEEVEKLKELDPEKFGKVLKLVKEALKILEEGPDTVEKAQELLKLVEEALKLLASSEHASGELLDLALEAVNEAADILELLK
B5: GBRAP_128_3446 (protein)
chain: KEEEIEKYAKEVKEEFKEKLKEGPKAAAEYFIEVLEKVDDEKAEKITKEVIEYLKEQDIKLASEVLDEMMRLSKRLTPEKRAILLEYVSPLLYELEEKEE
B6: GBRAP_11_2805 (protein)
chain: KEEKLKELRKLLEKAAELIDKLLKVGTDDKELLKEIEKVLEEAEKLAKELGDESLIKLVEIAKELVKQAKADPKNAEQYLKLARATLRVAEGQVLLLIEE
B7: GBRAP_74_6548 (protein)
chain: SAELLARAREAAAAGDLDTLVELTREALAAGDKETAAEILALLLRTAVARADELTLAEADALVDVIDEVLASGVTKLLSRETLKLLVEVLARAKELEEAA
B8: GBRAP_184_5208 (protein)
chain: EIKEFEIEFENEEELKEKLEELLKKVEGFKGDLYIIVKAPKFTKEMAELLLKALKEIKENGYAKKIVVEVEGEVSEEVLDLLLEGAKEIGVQIVVALSEE
B9: GBRAP_128_3518 (protein)
chain: STEEAVAKVRELMAKIKEASPEEAAELTREIAALIEAADPETREAMVDEFISLLPELSKEKLETIADTLRELRPAADPDVANLLAEVEVEALNEALELEE
B10: GBRAP_80_6779 (protein)
chain: ALERARAAIKRLEELNPEFAERARKILEKLEEKGASDETFEAFAEAVEAIAELLKLGLEEEAAELLEEMEEAAEEEDEEERTAMFRGIAGEALLAVEEAE
B11: GBRAP_52_6137 (protein)
chain: MEEELRKKAEEIIALVKAGKLDEAKALAEELAKSLNDEELKKFADKFAELVLKLPKEELDAAARAMDIVVDALEKVGVDEELISYFLGKATKAMYEVELR
B12: GBRAP_52_6033 (protein)
chain: MREEMRRLAEEIIALVKAGRLEEARALVREIVATKSEEELRLLGEELARLTREAPPEDLDAYMEAAEILADAMVEAGYEEVLADDLLARVAAAAVENLAA
B13: GBRAP_128_3561 (protein)
chain: SVEEAVAEAERLLEKIKASGPEEAREYARELAELLAAADEETREAMVETILARLPELSVEHLEILADVFREARPAADPRTAEALAEIEVEALNEAEEKEE
B14: GBRAP_83_6947 (protein)
chain: KEKIVVAANDDNVEEAVKIAADLAKTGKYEVTLEFIGTVEAAKKLIKEVEKALKEGVKFDVEVLLKGATEEEVKEIKAEFEKVAKAAGADVKVEVHAIKP
B15: GBRAP_78_6598 (protein)
chain: EVEELVDKAIEHLDKAAKLAKKLPPEESNKLLDLLVDAMSYLLEAIENGFDLELLEKAKEYVEKAIELAKKFNHPESPEIIKELEKALELLEKAIELVKK
B16: GBRAP_52_5953 (protein)
chain: MREEVERLVEELWALVAAGDLEGARALAREAVRTWDEEELRLLAEAVVERVAAAPPERLDEAFTLAEIVADEIEEEGRDEALAGDLLAGAARAIHAKELA
B17: GBRAP_166_4946 (protein)
chain: SLEEIVEETREFIEELAEQMKDADEEEQLDIYAEIAEKIEEAKEAGVPEEDILELIRLALELTKEAGGSVEQLVGVLEMFVDLSEEERDKVIELAKEVLK
B18: GBRAP_150_3888 (protein)
chain: DLETLEAIASTALDLLEESIETGGALLDAALKVVKALVDEAKEVSEELEKLAKEALKKIEEAKKLKKAGGPEEEIKKLLEEAAKIVEEILEKVEKLIEEE
B19: GBRAP_160_4675 (protein)
chain: SEEVEKLIEEIREILEEAVEMMEGESLEERIAIARVARGEILLLLSESPLVSDEIEDKADEIGEEFVEWIEAHPDATREELRELAEEAREKIEKAILEGQ
B20: GBRAP_184_5336 (protein)
chain: TTLEVSIEDLSLEEILARAAAAAAEAAAAGADLLIHLDLKGKSGEEIAEIVEAIGKIAKAAGIKNLTIGIDQAVDEETADKLIAIADKYGINLTLALEDE
B21: GBRAP_160_4141 (protein)
chain: KEELEKLIEEIREIAEEAIELIKDESREEAVAIARVALGEIVLLVMSNEAVSEETEEKVGEITRRAEEELLRRKDATNEEIIELLRRAAEEIIEILKEEI
B22: GBRAP_11_2922 (protein)
chain: EKEKLEEMAKLAEELAKTIEKLIEEGVDNEELLKEAEKKLKELEELTKKYGDEAAKKLVEIAKEEWEKALEDPENREEYLQRARNTARVLAGLYLLELEE
B23: GBRAP_80_6815 (protein)
chain: MEEEIEKNLKEIEEIDPELAKKVQEIVELARKLGVPLELIARYVKAILELAKLDLEKAKELVERLLARIKEAAAAGDREAALAEIVDAESEALLEVEELE
B24: GBRAP_52_6365 (protein)
chain: MLEEAVELLRKAVEATLAGKEEEAEEILKEIVENFSDETIVKAVERLAEEVATKTLEEAEAFLDTAIRLADIMLEAGRDEAKADEIEAIAAKAYSAVLAK
B25: GBRAP_78_6606 (protein)
chain: EVEELLEEAIELLSKAAKLLKELPPEVRDELMDLLVEAMSLLLESIEEGPNLKLLEEALKHVEEAIELLKKEKTPEAEKIIKLLEEAKEKIEKAIKLLKK
B26: GBRAP_14_3764 (protein)
chain: MEEIEKIIEETAREIVELLAEIAPERAEEFRRAVEEVRRKTIEEIRKTGNPEEAAEKGEEELVARVRAITADLPAEERARLEAVVRVEMGQAILEIDELL
B27: GBRAP_137_3639 (protein)
chain: MNVTIKTKTIDDLVEIEIEFDDPEKAEEAAELIEDIAHKHGALALSIEINEDGTLEATIWVPKEKAQALIDALVKAFKEKLKATVTIIDEDTGEVKTIKA
B28: GBRAP_26_5487 (protein)
chain: FEEEILRELEEEVRKILADEDETLRAAVIAEAEDLVLEAYEEFEKNADNKEAIKKAKEEALKELEEFLEKMGLSEEKRKKVVEAVEKALKRLEKEIQKKK
B29: GBRAP_74_6513 (protein)
chain: MEELLKKLEEAAKAGDVKELVKLAKEIAKTGDKETIERAAEIVVAYVEAHLDSLTPEELEALADALAELADKLMELGGDSETINRVAATAVALEEKLLAL

What follows are binders tested against GABARAP, O95166 (assay: median log2 fold change of GCK-ALFA target abundance (FLAG IP / Myc IP barcode read proportion) (log2 ratio); each designed protein is fused to an ALFA-tag nanobody in HEK293 cells to bring the named protein to FLAG-tagged glucokinase (GCK); Myc marks an untargeted standard; higher = target protein stabilised (more abundant)). Details: target protein: 3xFLAG-MCP-GCK-ALFA reporter; HEK293 landing pad (RPLP).
Sequence of GABARAP, O95166 (O95166 whole entry, the tested form may be a part): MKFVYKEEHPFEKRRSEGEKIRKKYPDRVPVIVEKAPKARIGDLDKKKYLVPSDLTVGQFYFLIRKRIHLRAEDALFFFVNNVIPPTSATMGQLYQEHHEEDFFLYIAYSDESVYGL
How it was run: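 The readout is target abundance, the per-binder median log2 ratio of FLAG to Myc barcode read proportions. It came from HEK293 landing-pad cells carrying a recombined ALFA-nanobody-fused binder library, induced with 2 μg mL^−1 doxycycline and transfected with a plasmid for a FLAG-tagged target and a Myc-tagged standard. After 48 h, lysates were immunoprecipitated with anti-FLAG and anti-Myc, and circular RNA barcodes were reverse transcribed, amplified and sequenced. Each barcode needed a proportion of at least 10^−7 in both replicates and each binder at least 3 barcodes per replicate, a pseudocount of 10^−6 was added, and the replicates were pooled.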

| Binder | median log2 fold change |
| --- | --- |
| B1 | 0.182 |
| B2 | -0.0417 |
| B3 | 0.147 |
| B4 | 0.274 |
| B5 | 0.3 |
| B6 | -0.138 |
| B7 | -0.211 |
| B8 | 0.0734 |
| B9 | 0.0162 |
| B10 | -0.0127 |
| B11 | 0.184 |
| B12 | -0.302 |
| B13 | 0.287 |
| B14 | 0.139 |
| B15 | 0.052 |
| B16 | -0.171 |
| B17 | -0.0927 |
| B18 | 0.101 |
| B19 | 0.00851 |
| B20 | 0.367 |
| B21 | -0.308 |
| B22 | 0.194 |
| B23 | 0.197 |
| B24 | -0.000301 |
| B25 | -0.743 |
| B26 | -0.129 |
| B27 | 0.175 |
| B28 | 0.208 |
| B29 | 0.247 |

— the supplement of paper PMC12632987
